In the supplement of paper PMC10369915:
Some of the results follow. No stated cut-off is given here; in the data, active = 3.2 or more and inactive = the rest. Only a few entries rise above the background.

Biological target: SHP2 C-SH2 domain E139D
Assay: enrichment score (SH2-bound / input frequency) (ratio); bacterial display of known human phosphotyrosine sites (pTyr-Var adds point mutants) read by sequencing; higher = stronger binding; tyrosines were phosphorylated by kinases first
Details: peptide library: pTyr-Var
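Further: displayed peptides selected on beads carrying the immobilized SH2 domain, with library peptides lacking any tyrosine serving as negative controls.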

Enrichment score, inactive:
IYKAAYFGVYD [SLC25A4_Y191_R188K] 1.01
IFKAAYFGVFD [SLC25A4_Y191_R188K_YF] 1.3
ANVIRYFPTQA [SLC25A4_Y81] 0.895
ANVIHYFPTQA [SLC25A4_Y81_R80H] 0.872
GRTNIYKNKKD [SLC26A3_Y520] 0.536
GRTNIYNNKKD [SLC26A3_Y520_K521N] 0.841
NNKKDYYDMYE [SLC26A3_Y526_K521N] 0.846
KNKKDYFDMFE [SLC26A3_Y526_YF] 0.974
TDKLFYIYTSG [SLC27A4_Y243] 1.02
TDKLFYIYTPG [SLC27A4_Y243_S247P] 0.676
TDKLFYIFTSG [SLC27A4_Y243_YF] 1.31
KLFYIYTSGTT [SLC27A4_Y245] 1.2
KLFYIYTPGTT [SLC27A4_Y245_S247P] 0.694
ILLAGYLVMVI [SLC28A3_Y113] 2.48
VIEQRYNETWL [SLC2A4_Y56_S55R] 1
SAPDSYIGIGN [SLC38A4_Y27] 0.653
LLQKTYNYNVL [SLC4A1_Y553_P548L] 1.14
LLQKTYNFNVL [SLC4A1_Y553_P548L_YF] 1.36
PLQKIYNYNVL [SLC4A1_Y553_T552I] 1.35

Biological target: SHP2 C-SH2 domain wild-type
Assay: as above
Details: peptide library: pTyr-Var

Enrichment score, inactive:
IYKAAYFGVYD [SLC25A4_Y191_R188K] 1
IFKAAYFGVFD [SLC25A4_Y191_R188K_YF] 1.31
ANVIRYFPTQA [SLC25A4_Y81] 0.882
ANVIHYFPTQA [SLC25A4_Y81_R80H] 1.09
GRTNIYKNKKD [SLC26A3_Y520] 0.55
GRTNIYNNKKD [SLC26A3_Y520_K521N] 0.88
NNKKDYYDMYE [SLC26A3_Y526_K521N] 0.617
KNKKDYFDMFE [SLC26A3_Y526_YF] 1.07
TDKLFYIYTSG [SLC27A4_Y243] 1.24
TDKLFYIYTPG [SLC27A4_Y243_S247P] 0.843
TDKLFYIFTSG [SLC27A4_Y243_YF] 1.03
KLFYIYTSGTT [SLC27A4_Y245] 1.14
KLFYIYTPGTT [SLC27A4_Y245_S247P] 0.679
ILLAGYLVMVI [SLC28A3_Y113] 2.34
VIEQRYNETWL [SLC2A4_Y56_S55R] 0.795
SAPDSYIGIGN [SLC38A4_Y27] 0.594
LLQKTYNYNVL [SLC4A1_Y553_P548L] 0.851
LLQKTYNFNVL [SLC4A1_Y553_P548L_YF] 1.2
PLQKIYNYNVL [SLC4A1_Y553_T552I] 0.975

Biological target: SHP2 N-SH2 domain L43F
Assay: as above
Details: peptide library: pTyr-Var

Enrichment score, inactive:
IYKAAYFGVYD [SLC25A4_Y191_R188K] 1.35
IFKAAYFGVFD [SLC25A4_Y191_R188K_YF] 1.38
ANVIRYFPTQA [SLC25A4_Y81] 0.913
ANVIHYFPTQA [SLC25A4_Y81_R80H] 1.08
GRTNIYKNKKD [SLC26A3_Y520] 0.471
GRTNIYNNKKD [SLC26A3_Y520_K521N] 0.879
NNKKDYYDMYE [SLC26A3_Y526_K521N] 0.6
KNKKDYFDMFE [SLC26A3_Y526_YF] 1.1
TDKLFYIYTSG [SLC27A4_Y243] 1.11
TDKLFYIYTPG [SLC27A4_Y243_S247P] 0.601
TDKLFYIFTSG [SLC27A4_Y243_YF] 1.11
KLFYIYTSGTT [SLC27A4_Y245] 1.13
KLFYIYTPGTT [SLC27A4_Y245_S247P] 0.654
ILLAGYLVMVI [SLC28A3_Y113] 2.15
VIEQRYNETWL [SLC2A4_Y56_S55R] 0.855
SAPDSYIGIGN [SLC38A4_Y27] 0.694
LLQKTYNYNVL [SLC4A1_Y553_P548L] 1.19
LLQKTYNFNVL [SLC4A1_Y553_P548L_YF] 1.34
PLQKIYNYNVL [SLC4A1_Y553_T552I] 1.33

Biological target: SHP2 N-SH2 domain T42A
Assay: as above
Details: peptide library: pTyr-Var

Enrichment score, inactive:
IYKAAYFGVYD [SLC25A4_Y191_R188K] 1.16
IFKAAYFGVFD [SLC25A4_Y191_R188K_YF] 1.04
ANVIRYFPTQA [SLC25A4_Y81] 0.66
ANVIHYFPTQA [SLC25A4_Y81_R80H] 1.01
GRTNIYKNKKD [SLC26A3_Y520] 0.493
GRTNIYNNKKD [SLC26A3_Y520_K521N] 0.762
NNKKDYYDMYE [SLC26A3_Y526_K521N] 0.515
KNKKDYFDMFE [SLC26A3_Y526_YF] 0.81
TDKLFYIYTSG [SLC27A4_Y243] 0.943
TDKLFYIYTPG [SLC27A4_Y243_S247P] 0.643
TDKLFYIFTSG [SLC27A4_Y243_YF] 1.12
KLFYIYTSGTT [SLC27A4_Y245] 1.37
KLFYIYTPGTT [SLC27A4_Y245_S247P] 0.765
ILLAGYLVMVI [SLC28A3_Y113] 1.94
VIEQRYNETWL [SLC2A4_Y56_S55R] 0.73
SAPDSYIGIGN [SLC38A4_Y27] 0.558
LLQKTYNYNVL [SLC4A1_Y553_P548L] 0.962
LLQKTYNFNVL [SLC4A1_Y553_P548L_YF] 1.21
PLQKIYNYNVL [SLC4A1_Y553_T552I] 1.39

Biological target: SHP2 N-SH2 domain T52S
Assay: as above
Details: peptide library: pTyr-Var

Enrichment score, inactive:
IYKAAYFGVYD [SLC25A4_Y191_R188K] 1.52
IFKAAYFGVFD [SLC25A4_Y191_R188K_YF] 1.29
ANVIRYFPTQA [SLC25A4_Y81] 0.756
ANVIHYFPTQA [SLC25A4_Y81_R80H] 0.991
GRTNIYKNKKD [SLC26A3_Y520] 0.588
GRTNIYNNKKD [SLC26A3_Y520_K521N] 0.877
NNKKDYYDMYE [SLC26A3_Y526_K521N] 0.449
KNKKDYFDMFE [SLC26A3_Y526_YF] 0.979
TDKLFYIYTSG [SLC27A4_Y243] 0.849
TDKLFYIYTPG [SLC27A4_Y243_S247P] 0.597
TDKLFYIFTSG [SLC27A4_Y243_YF] 1.19
KLFYIYTSGTT [SLC27A4_Y245] 1.03
KLFYIYTPGTT [SLC27A4_Y245_S247P] 0.74
ILLAGYLVMVI [SLC28A3_Y113] 2.12
VIEQRYNETWL [SLC2A4_Y56_S55R] 0.991
SAPDSYIGIGN [SLC38A4_Y27] 0.65
LLQKTYNYNVL [SLC4A1_Y553_P548L] 1
LLQKTYNFNVL [SLC4A1_Y553_P548L_YF] 1.54
PLQKIYNYNVL [SLC4A1_Y553_T552I] 1.17

Biological target: SHP2 N-SH2 domain wild-type
Assay: as above
Details: peptide library: pTyr-Var

Enrichment score, inactive:
IYKAAYFGVYD [SLC25A4_Y191_R188K] 1.15
IFKAAYFGVFD [SLC25A4_Y191_R188K_YF] 1.28
ANVIRYFPTQA [SLC25A4_Y81] 0.952
ANVIHYFPTQA [SLC25A4_Y81_R80H] 0.923
GRTNIYKNKKD [SLC26A3_Y520] 0.525
GRTNIYNNKKD [SLC26A3_Y520_K521N] 0.937
NNKKDYYDMYE [SLC26A3_Y526_K521N] 0.86
KNKKDYFDMFE [SLC26A3_Y526_YF] 0.753
TDKLFYIYTSG [SLC27A4_Y243] 1.05
TDKLFYIYTPG [SLC27A4_Y243_S247P] 0.878
TDKLFYIFTSG [SLC27A4_Y243_YF] 1.05
KLFYIYTSGTT [SLC27A4_Y245] 1.45
KLFYIYTPGTT [SLC27A4_Y245_S247P] 0.725
ILLAGYLVMVI [SLC28A3_Y113] 2.36
VIEQRYNETWL [SLC2A4_Y56_S55R] 0.997
SAPDSYIGIGN [SLC38A4_Y27] 0.572
LLQKTYNYNVL [SLC4A1_Y553_P548L] 1.16
LLQKTYNFNVL [SLC4A1_Y553_P548L_YF] 1.13
PLQKIYNYNVL [SLC4A1_Y553_T552I] 1.16
